According to ChEMBL document CHEMBL4689842, “EUbOPEN Chemogenomics Library wave 1” (2021):
For part of its entries the source gives two or more results. This is not the full list of results. An entry can have further records. The values listed for one entry repeat one measurement (runs, samples, wells, individuals or studies).

What was measured:
Assay type in all cases: toxicity, cell-based
Fibroblast = assay: Multiplex assay against human fibroblast
In short: (§1)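 Phenotypes for tubulin, mitochondrial mass and membrane permeability are expressed as per cents of healthy-nucleus cells. Cells were stained live at seeding with Hoechst33342, BioTracker Green Microtubule Cytoskeleton Dye, MitoTracker Red and Annexin V Alexa Fluor 680, then imaged after compound addition on a CQ1 microscope at 37°C and 5% CO2. Machine-learning gating in CellPathfinder separated Hoechst high-intensity objects from normal cells, divided normal cells by nuclear state (healthy, pyknosed, fragmented) and divided pyknosed cells into mitotic or apoptotic.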

U2OS = assay: Multiplex assay against U2OS; details: human; in short: as §1
HEK-293T = assay: Multiplex assay against HEK293T; details: human; in short: as §1;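 for Population Tubulin-Different-Phenotype (%): share of the cells with healthy nuclei that show this phenotype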
[1] = 12 h, 1 µM, compound concentration 1 uM, replicate 1
[2] = 12 h, 1 µM, compound concentration 1 uM, replicate 2
[3] = 24 h, 1 µM, compound concentration 1 uM, replicate 1
[4] = 24 h, 1 µM, compound concentration 1 uM, replicate 2
[5] = 12 h, 10 µM, compound concentration 10 uM, replicate 1
[6] = 12 h, 10 µM, compound concentration 10 uM, replicate 2
[7] = 24 h, 10 µM, compound concentration 10 uM, replicate 1
[8] = 24 h, 10 µM, compound concentration 10 uM, replicate 2

C[C@H]1Oc2cc(cnc2N)-c2c(nn(C)c2C#N)CN(C)C(=O)c2ccc(F)cc21 [LORLATINIB]
Population Tubulin-Different-Phenotype (%) (Fibroblast; [1]): 41% and 7%
Population Mitochondria Different-Phenotype (%) (Fibroblast; [2]): 6% and 28%
Population Mitochondria Different-Phenotype (%) (Fibroblast; [3]): 4% and 1%
Population Tubulin-Different-Phenotype (%) (Fibroblast; [3]): 28% and 6%
Population Healthy Nuclei (%) (Fibroblast; [4]): 7% and 25%
Population Pyknosed Nuclei (%) (Fibroblast; [4]): 36% and 8%
Population Fragmented Nuclei (%) (U2OS; [2]): 5% and 19%

CN1CCN(C(=O)C(C)(C)c2ccc(C(=O)Nc3cn4cc(-c5ccncc5)ccc4n3)cc2)CC1 [T3-CLK]
Population Membrane Permeable-Phenotype (%) (Fibroblast; [5]): 35%, 18%, 10%
Population Tubulin-Different-Phenotype (%) (Fibroblast; [5]): 66%, 17%, 7%
Population Apoptotic (%) (Fibroblast; [6]): 100% and 0%
Population Fragmented Nuclei (%) (Fibroblast; [6]): 48%, 74%, 18%
Population Healthy Nuclei (%) (Fibroblast; [6]): 45%, 16%, 70%
Population Hoechst High Intensity Objects (%) (Fibroblast; [6]): 26%, 50%, 7%
Population Mitochondria Different-Phenotype (%) (Fibroblast; [6]): 20%, 0%, 74%
Population Mitotic Cells (%) (Fibroblast; [6]): 0% and 100%
Population Membrane Permeable-Phenotype (%) (Fibroblast; [7]): 20%, 32%, 8%
Population Mitochondria Different-Phenotype (%) (Fibroblast; [7]): 1%, 7%, 2%
Population Tubulin-Different-Phenotype (%) (Fibroblast; [7]): 28%, 70%, 8%
Population Apoptotic (%) (Fibroblast; [8]): 100%, 22%, 66%
Population Fragmented Nuclei (%) (Fibroblast; [8]): 70%, 22%, 42%
Population Healthy Nuclei (%) (Fibroblast; [8]): 19%, 66%, 51%
Population Hoechst High Intensity Objects (%) (Fibroblast; [8]): 41%, 9%, 38%
Population Mitochondria Different-Phenotype (%) (Fibroblast; [8]): 0%, 80%, 20%
Population Mitotic Cells (%) (Fibroblast; [8]): 0%, 77%, 33%
Population Apoptotic (%) (HEK-293T; [5]): 82% and 22%
Population Fragmented Nuclei (%) (HEK-293T; [5]): 12%, 16%, 5%
Population Healthy Nuclei (%) (HEK-293T; [5]): 17%, 59%, 66%
Population Mitochondria Different-Phenotype (%) (HEK-293T; [5]): 93%, 14%, 8%
Population Mitotic Cells (%) (HEK-293T; [5]): 17% and 77%
Population Tubulin-Different-Phenotype (%) (HEK-293T; [5]): 90%, 62%, 13%
Total Cell Count (HEK-293T; [5]): 222, 797, 697
Population Apoptotic (%) (HEK-293T; [6]): 50%, 20%, 8%
Population Healthy Nuclei (%) (HEK-293T; [6]): 25%, 78%, 81%
Population Mitochondria Different-Phenotype (%) (HEK-293T; [6]): 70%, 37%, 15%
Population Pyknosed Nuclei (%) (HEK-293T; [6]): 69%, 18%, 12%
Total Cell Count (HEK-293T; [6]): 154, 950, 1570
Population Apoptotic (%) (HEK-293T; [7]): 92%, 34%, 25%
Population Healthy Nuclei (%) (HEK-293T; [7]): 12%, 58%, 79%
Population Mitochondria Different-Phenotype (%) (HEK-293T; [7]): 95%, 28%, 9%
Population Mitotic Cells (%) (HEK-293T; [7]): 7%, 65%, 74%
Population Pyknosed Nuclei (%) (HEK-293T; [7]): 72%, 24%, 14%
Total Cell Count (HEK-293T; [7]): 225, 735, 914
Population Apoptotic (%) (HEK-293T; [8]): 81%, 8%, 26%
Population Healthy Nuclei (%) (HEK-293T; [8]): 25%, 89%, 85%
Population Hoechst High Intensity Objects (%) (HEK-293T; [8]): 8%, 2%, 5%
Population Mitochondria Different-Phenotype (%) (HEK-293T; [8]): 85%, 11%, 50%
Population Mitotic Cells (%) (HEK-293T; [8]): 18%, 91%, 73%
Population Pyknosed Nuclei (%) (HEK-293T; [8]): 70%, 2%, 10%
Total Cell Count (HEK-293T; [8]): 147, 2020, 975
Population Fragmented Nuclei (%) (U2OS; [5]): 3% and 17%
Population Membrane Permeable-Phenotype (%) (U2OS; [5]): 60%, 15%, 27%
Population Mitochondria Different-Phenotype (%) (U2OS; [5]): 9%, 73%, 11%
Population Tubulin-Different-Phenotype (%) (U2OS; [5]): 77%, 97%, 12%
Population Apoptotic (%) (U2OS; [6]): 50%, 0%, 33%
Population Fragmented Nuclei (%) (U2OS; [6]): 5%, 18%, 8%
Population Mitochondria Different-Phenotype (%) (U2OS; [6]): 33%, 74%, 22%
Population Tubulin-Different-Phenotype (%) (U2OS; [6]): 61%, 94%, 11%
Total Cell Count (U2OS; [6]): 91, 57, 383
Population Mitochondria Different-Phenotype (%) (U2OS; [7]): 30%, 73%, 17%
Population Tubulin-Different-Phenotype (%) (U2OS; [7]): 83%, 98%, 18%
Population Mitochondria Different-Phenotype (%) (U2OS; [8]): 32%, 80%, 16%
Population Tubulin-Different-Phenotype (%) (U2OS; [8]): 54%, 88%, 16%
Total Cell Count (U2OS; [8]): 95, 57, 301

CN([C@@H](Cc1ccc(OS(=O)(=O)c2cccc3cnccc23)cc1)C(=O)N1CCN(c2ccccc2)CC1)S(=O)(=O)c1cccc2cnccc12
Population Mitochondria Different-Phenotype (%) (Fibroblast; [1]): 3% and 12%
Population Membrane Permeable-Phenotype (%) (Fibroblast; [2]): 17% and 60%
Population Mitochondria Different-Phenotype (%) (Fibroblast; [3]): 17% and 5%
Population Apoptotic (%) (Fibroblast; [4]): 100% and 16%
Population Mitotic Cells (%) (Fibroblast; [4]): 0% and 83%

COCC(=O)NC/C=C/c1ccc2ncnc(Nc3ccc(Oc4ccc(C)nc4)c(C)c3)c2c1 [CP-724714]
Population Mitochondria Different-Phenotype (%) (Fibroblast; [1]): 12% and 2%
Population Tubulin-Different-Phenotype (%) (Fibroblast; [1]): 73% and 12%
Population Apoptotic (%) (Fibroblast; [2]): 12% and 72%
Population Mitochondria Different-Phenotype (%) (Fibroblast; [2]): 11% and 44%
Population Mitotic Cells (%) (Fibroblast; [2]): 87% and 27%
Population Membrane Permeable-Phenotype (%) (Fibroblast; [3]): 15% and 4%
Population Mitochondria Different-Phenotype (%) (Fibroblast; [3]): 20% and 2%
Population Tubulin-Different-Phenotype (%) (Fibroblast; [3]): 70% and 7%
Population Tubulin-Different-Phenotype (%) (Fibroblast; [4]): 11% and 66%
Population Membrane Permeable-Phenotype (%) (HEK-293T; [1]): 30% and 5%
Population Mitochondria Different-Phenotype (%) (HEK-293T; [1]): 30% and 6%
Population Tubulin-Different-Phenotype (%) (HEK-293T; [1]): 91% and 8%
Population Fragmented Nuclei (%) (HEK-293T; [2]): 1% and 5%
Population Membrane Permeable-Phenotype (%) (HEK-293T; [2]): 15% and 4%
Population Mitochondria Different-Phenotype (%) (HEK-293T; [2]): 54% and 10%
Population Pyknosed Nuclei (%) (HEK-293T; [2]): 27% and 5%
Population Tubulin-Different-Phenotype (%) (HEK-293T; [2]): 98% and 13%
Population Mitochondria Different-Phenotype (%) (HEK-293T; [3]): 44% and 4%
Population Pyknosed Nuclei (%) (HEK-293T; [3]): 32% and 9%
Population Tubulin-Different-Phenotype (%) (HEK-293T; [3]): 92% and 11%
Population Fragmented Nuclei (%) (HEK-293T; [4]): 3% and 20%
Population Mitochondria Different-Phenotype (%) (HEK-293T; [4]): 60% and 2%
Population Pyknosed Nuclei (%) (HEK-293T; [4]): 31% and 2%
Population Tubulin-Different-Phenotype (%) (HEK-293T; [4]): 96% and 17%
Population Apoptotic (%) (U2OS; [2]): 46% and 0%
Population Pyknosed Nuclei (%) (U2OS; [2]): 14% and 3%
Population Tubulin-Different-Phenotype (%) (U2OS; [2]): 100% and 20%
Population Membrane Permeable-Phenotype (%) (U2OS; [3]): 39% and 10%
Population Mitochondria Different-Phenotype (%) (U2OS; [3]): 51% and 11%
Population Tubulin-Different-Phenotype (%) (U2OS; [4]): 100% and 19%
